PMC10516938, “Conformational dynamics of cohesin/Scc2 loading complex are regulated by Smc3 acetylation and ATP binding” (Nature Communications, 2023)
Substitutions are numbered along the chain they refer to. Numbers in names are those of the source. No constants are given. Whether binding was seen depends on the method and setting. In cells and extracts the contact can be indirect. Some binding calls cover weakened binding; strength is not graded here.

T1: Smc1 E1102C (S. cerevisiae) (UniProt P32908)
T1 sequence: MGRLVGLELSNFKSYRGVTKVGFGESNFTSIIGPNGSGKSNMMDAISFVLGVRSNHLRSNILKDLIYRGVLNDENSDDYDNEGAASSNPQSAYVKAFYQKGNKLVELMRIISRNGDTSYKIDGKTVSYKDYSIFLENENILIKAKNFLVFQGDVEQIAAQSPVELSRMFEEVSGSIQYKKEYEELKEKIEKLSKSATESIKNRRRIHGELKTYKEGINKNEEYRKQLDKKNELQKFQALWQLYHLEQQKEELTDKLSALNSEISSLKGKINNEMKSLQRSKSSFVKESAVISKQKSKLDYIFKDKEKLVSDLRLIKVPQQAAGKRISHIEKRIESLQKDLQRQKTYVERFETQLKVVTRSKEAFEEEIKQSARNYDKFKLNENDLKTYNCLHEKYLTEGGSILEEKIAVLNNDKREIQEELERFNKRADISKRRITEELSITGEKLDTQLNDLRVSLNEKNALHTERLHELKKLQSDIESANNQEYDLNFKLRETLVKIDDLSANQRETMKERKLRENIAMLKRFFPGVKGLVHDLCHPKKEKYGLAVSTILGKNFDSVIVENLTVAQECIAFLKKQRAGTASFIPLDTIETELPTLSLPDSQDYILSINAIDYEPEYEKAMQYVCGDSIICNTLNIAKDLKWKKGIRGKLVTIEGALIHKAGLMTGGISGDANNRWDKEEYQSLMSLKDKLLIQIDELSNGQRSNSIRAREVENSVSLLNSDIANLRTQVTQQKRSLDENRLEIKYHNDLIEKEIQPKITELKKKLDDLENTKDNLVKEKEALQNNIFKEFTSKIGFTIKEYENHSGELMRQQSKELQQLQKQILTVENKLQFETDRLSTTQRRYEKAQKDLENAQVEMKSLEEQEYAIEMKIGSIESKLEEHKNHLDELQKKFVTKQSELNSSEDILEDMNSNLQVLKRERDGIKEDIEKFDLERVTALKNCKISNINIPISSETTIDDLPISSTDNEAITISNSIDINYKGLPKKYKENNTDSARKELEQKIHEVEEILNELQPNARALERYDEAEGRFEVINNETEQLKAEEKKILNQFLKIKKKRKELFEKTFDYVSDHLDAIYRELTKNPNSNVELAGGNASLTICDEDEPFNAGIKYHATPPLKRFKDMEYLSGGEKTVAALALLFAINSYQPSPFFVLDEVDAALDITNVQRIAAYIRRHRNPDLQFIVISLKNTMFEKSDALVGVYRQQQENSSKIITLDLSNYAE

T2: Smc3 Q67C E1155Q (S. cerevisiae) (UniProt P47037)
T2 sequence: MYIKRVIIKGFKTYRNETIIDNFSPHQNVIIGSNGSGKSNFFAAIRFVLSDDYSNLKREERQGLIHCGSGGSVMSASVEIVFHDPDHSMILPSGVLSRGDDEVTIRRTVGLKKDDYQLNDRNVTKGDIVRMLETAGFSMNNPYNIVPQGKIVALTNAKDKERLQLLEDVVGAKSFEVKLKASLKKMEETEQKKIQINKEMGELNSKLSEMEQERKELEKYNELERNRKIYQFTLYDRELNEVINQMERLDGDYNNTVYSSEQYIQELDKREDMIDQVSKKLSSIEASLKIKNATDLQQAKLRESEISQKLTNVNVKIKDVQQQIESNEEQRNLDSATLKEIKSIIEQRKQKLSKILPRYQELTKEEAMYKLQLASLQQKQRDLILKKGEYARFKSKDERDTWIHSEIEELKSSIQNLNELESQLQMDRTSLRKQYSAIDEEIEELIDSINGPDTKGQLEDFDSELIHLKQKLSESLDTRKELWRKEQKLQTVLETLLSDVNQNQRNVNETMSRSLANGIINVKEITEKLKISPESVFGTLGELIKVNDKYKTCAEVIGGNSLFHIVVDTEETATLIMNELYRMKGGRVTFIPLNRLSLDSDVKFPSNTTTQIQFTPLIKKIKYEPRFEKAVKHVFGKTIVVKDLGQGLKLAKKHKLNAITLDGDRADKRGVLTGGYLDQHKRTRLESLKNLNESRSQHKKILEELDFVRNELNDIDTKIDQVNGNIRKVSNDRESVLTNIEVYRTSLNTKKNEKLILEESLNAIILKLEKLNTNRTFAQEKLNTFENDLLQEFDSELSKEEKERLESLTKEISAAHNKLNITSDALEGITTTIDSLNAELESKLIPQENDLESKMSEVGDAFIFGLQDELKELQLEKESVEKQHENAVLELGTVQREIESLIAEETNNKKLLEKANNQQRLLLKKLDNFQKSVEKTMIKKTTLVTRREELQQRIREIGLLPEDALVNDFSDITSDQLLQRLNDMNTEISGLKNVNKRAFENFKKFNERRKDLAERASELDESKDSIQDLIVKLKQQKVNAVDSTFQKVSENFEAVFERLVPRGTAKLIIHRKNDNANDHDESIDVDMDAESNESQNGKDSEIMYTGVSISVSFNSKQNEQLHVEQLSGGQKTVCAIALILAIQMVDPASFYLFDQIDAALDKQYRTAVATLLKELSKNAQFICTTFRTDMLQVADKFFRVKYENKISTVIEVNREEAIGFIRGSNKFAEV

B1: Scc2 T1281C (protein, UniProt Q04002 1-1493)
chain: MSYPGKDKNIPGRIIEALEDLPLSYLVPKDGLAALVNAPMRVSLPFDKTIFTSADDGRDVNINVLGTANSTTSSIKNEAEKERLVFKRPSNFTSSANSVDYVPTNFLEGLSPLAQSVLSTHKGLNDSINIEKKSEIVSRPEAKHKLESVTSNAGNLSFNDNSSNKKTKTSTGVTMTQANLAEQYLNDLKNILDIVGFDQNSAEIGNIEYWLQLPNKKFVLTTNCLTKLQMTIKNITDNPQLSNSIEITWLLRLLDVMVCNIKFSKSSLKMGLDDSMLRYIALLSTIVLFNIFLLGKNDSNLHRESYIMEPVNFLSDLIESLKILTIEYGSLKIEFDTFQEALELLPKYIRNGPFLDDNVTAKLVYIFSDLLMNNDIEATTNIQFQSFWDNVKRISSDILVSLFGSFDQQRGFIIEELLSHIEKLPTKRIQKKLRKVGNQNIYITDFTFTLMSMLENINCYSFCNQMKDIAPENIDLLKNEYKKQEEFLFNIVEHINDTILERFFKNPSALRYVIDNFVQDLLLLISSPQWPVTEKILSSLLKRLLSVYSPSMQVSANIETICLQLIGNIGSTIFDIKCSTRDHEDNNLIKMINYPETLPHFFKSFEECIAYNETIKCRRSATRFLWNLRLGTILILEEYTKDAKEQIITVDNELKKILEQIKDGGLGPELENREADFSTIKLDYFSILHAFELLNLYDPYLKLILSLLAKDKIKLRSTAIKCLSMLASKDKVILSNPMVKETIHRRLNDSSASVKDAILDLVSINSSYFEFYQQINNNYNDDSIMVRKHVLRINEKMYDETNDIVTKVYVIARILMKIEDEEDNIIDMARLILLNRWILKVHEVLDQPEKLKEISSSVLLVMSRVAIMNEKCSQLFDLFLNFYLLNKEAHSKEAYDKITHVLTILTDFLVQKIVELNSDDTNEKNSIVDKQNFLNLLAKFADSTVSFLTKDHITALYPYMVSDEKSDFHYYILQVFRCTFEKLANFKQKFLYDLETTLLSRLPKMNVREIDEAMPLIWSVATHRHDTARVAKACSSCLSHLHPYINKANNEEAAIVVDGKLQRLIYLSTGFARFCFPKPSNDKIAFLQEGETLYEHITKCLLVLSKDKITHVIRRVAVKNLTKLCGNHPKLFNSRHVLHLLDKEFQSDQLDIKLVILESLYDLFLLEERKSVRNTGVNSTLSSNSILKKKLLKTNRVEFANDGVCSALATRFLDNILQLCLLRDLKNSLVAIRLLKLILKFGYTNPSHSIPTVIALFASTSQYIRHVAYELLEDLFEKYECLVFSSLSRGVTKAIHYSIHTDEKYYYKHDHFLSLLEKLCGTGKKNGPKFFKVLKRIMQSYLDDITDLTSTNSSVQKSIFVLCTNISNITFVSQYDLVSLLKTIDLTTDRLKEVIMDEIGDNVSSLSVSEEKLSGIILIQLSLQDLGTYLLHLYGLRDDVLLLDIVEESELKNKQLPAKKPDISKFSAQLENIEQYSSNGKLLTYFRKHVKDT
B2: Scc2 T1175C (natural protein, S. cerevisiae, UniProt Q04002 1-1493, looked up)
chain: B1 chain with T1175C, C1281T
notes: Scc2, S. cerevisiae; source: S. cerevisiae W303, in vivo, whole-cell extract

Tests used:
[1] = biological target: T1, Smc1 E1102C (S. cerevisiae); assay: cross-linking; in vivo BMOE cross-link of cysteine pairs in yeast cells arrested in late G1 by non-degradable Sic1(9m); Scc1-PK immunoprecipitated, western blot, band intensities quantified
[2] = biological target: T2, Smc3 Q67C E1155Q (S. cerevisiae); assay: as above

Row | Binder | binding [1] | binding [2]
1 | B1 | binds | –
2 | B2 | – | binds
